# Results as given in article PMC4336329 (PLoS ONE, 2015).
# The campaign covered roughly 310,000 compounds. About 14,000 (4.5%) showed an effect of 50% or more. Effects have a minus sign here. The list shows a part of the results.
# Target: human ether-à-go-go-related gene (hERG) potassium channel (human, UniProt Q12809)
# Assay: primary screen, population patch clamp on CHO cells stably expressing hERG
# 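Also: peak tail current of the secondary pulse compared with the same well before compound.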
# Sequence of human ether-à-go-go-related gene (hERG) potassium channel (Q12809 whole entry, looked up): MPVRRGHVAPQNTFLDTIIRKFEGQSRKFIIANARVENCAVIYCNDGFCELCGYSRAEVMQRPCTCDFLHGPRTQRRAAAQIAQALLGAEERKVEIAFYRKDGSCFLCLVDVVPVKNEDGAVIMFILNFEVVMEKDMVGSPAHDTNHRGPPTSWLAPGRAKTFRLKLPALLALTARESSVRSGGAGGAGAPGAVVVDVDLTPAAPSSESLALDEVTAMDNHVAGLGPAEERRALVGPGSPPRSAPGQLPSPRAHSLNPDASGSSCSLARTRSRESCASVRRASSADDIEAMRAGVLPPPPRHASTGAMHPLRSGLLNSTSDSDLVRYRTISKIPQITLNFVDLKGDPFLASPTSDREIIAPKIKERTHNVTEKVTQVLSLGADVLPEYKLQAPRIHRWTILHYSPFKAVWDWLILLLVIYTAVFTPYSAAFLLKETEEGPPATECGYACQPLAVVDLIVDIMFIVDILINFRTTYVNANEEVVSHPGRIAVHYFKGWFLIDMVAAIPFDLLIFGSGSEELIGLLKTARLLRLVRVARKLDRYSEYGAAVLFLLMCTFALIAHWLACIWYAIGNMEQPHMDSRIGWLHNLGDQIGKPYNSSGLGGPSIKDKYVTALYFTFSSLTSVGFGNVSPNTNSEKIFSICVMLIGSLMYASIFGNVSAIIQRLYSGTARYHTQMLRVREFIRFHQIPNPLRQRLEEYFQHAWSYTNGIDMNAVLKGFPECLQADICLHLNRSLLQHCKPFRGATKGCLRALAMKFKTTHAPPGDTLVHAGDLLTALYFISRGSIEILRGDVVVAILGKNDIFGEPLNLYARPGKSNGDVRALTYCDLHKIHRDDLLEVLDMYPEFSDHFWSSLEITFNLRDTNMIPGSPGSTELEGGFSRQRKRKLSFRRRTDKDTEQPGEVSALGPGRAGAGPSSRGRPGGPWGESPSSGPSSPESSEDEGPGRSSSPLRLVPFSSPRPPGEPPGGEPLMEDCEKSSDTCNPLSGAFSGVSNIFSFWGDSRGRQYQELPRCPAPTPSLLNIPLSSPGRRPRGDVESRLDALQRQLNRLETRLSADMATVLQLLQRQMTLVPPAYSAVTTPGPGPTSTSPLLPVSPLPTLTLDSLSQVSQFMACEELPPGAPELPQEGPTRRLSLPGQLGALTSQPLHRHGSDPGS
row,SMILES,"hERG current change (%, negative = inhibition) at 10uM"
1,CCCN1CCN(C(=O)Cn2nc(C)n3c(cc4sccc43)c2=O)CC1,-23.9%
2,CN(CC(=O)Nc1c(Cl)cccc1Cl)C(=O)c1cc(-c2cccs2)nn1-c1ccccc1,-17.1%
3,O=C(CSc1nnc(CNC(=O)c2ccc(F)cc2)o1)NCc1ccccc1,-24.7%
4,CCCc1cc(=O)n2[nH]c(NC(=O)c3ccco3)nc2n1,18.2%
5,CC(=O)N1CCc2cc(S(=O)(=O)CCC(=O)N3CCc4ccccc4C3)ccc21,6.18%
6,CCCCNC(=O)CNC(=S)N(Cc1ccccc1)Cc1cccnc1,-23%
7,NNc1ccc(Cl)nn1,9.66%
8,Br.N=C(N)SCCN,17.8%
9,COC(=O)c1c(NC(=O)c2ccc(Br)s2)sc2c1CCC2,-8.61%
10,CCn1ccnc1CN(C)Cc1cn(C)nc1-c1ccccc1F,13.2%
11,COc1ccc(NC(=O)CS(=O)(=O)c2ccc(Br)cc2)cc1,23.1%
12,CN1CCN(NC(=S)Nc2ccc(Oc3ccccc3)cc2)CC1,1.33%
13,CCS(=O)(=O)c1ccc2oc(SCC(=O)NCCc3ccc(OC)cc3)nc2c1,-16.8%
14,COc1ccc(C2c3c(ccc4ccccc34)Oc3ncn4nc(CO/N=C/c5ccccc5)nc4c32)cc1 (stereo not shown),5.96%
15,Cc1ccc(Cc2cncc(O)c2)cc1S(=O)(=O)O,4%
16,O=C(O)c1cn(Cc2ccccn2)c(=O)c2ccccc12,9.76%
17,CCOC(=O)CCC(=O)N1CCOCCOCCOCC1,-6.15%
18,Cc1ccc(OCCSc2nnc(NC(=O)c3ccco3)s2)cc1,-1.66%
19,O=C(NCC1CCCO1)c1ccc2c(c1)S(=O)(=O)c1ccccc1C2=O (stereo not shown),-13.1%
20,CN1c2ccc([N+](=O)[O-])cc2CC2(C(=O)NC(=O)N(c3ccc(Br)cc3)C2=O)C1c1ccccc1 (stereo not shown),6.47%
21,CCN1C(=O)/C(=C2\SC(N3CCCCC3)=NC2=O)c2ccccc21,-0.354%
22,Cc1ccc2nc(NC(=O)c3ccc(Cl)s3)sc2c1,1.34%

row,SMILES,"hERG current change (%, negative = inhibition) at 10uM"
1,Cc1cc(N/C=C\c2nnnn2-c2ccccc2)no1,11.5%
2,CN1CCN(NC(=O)c2cccc(F)c2)CC1,-0.119%
3,COC(OC)c1ccnc(-c2ccc(OC(=O)c3cccs3)cc2)n1,-18.1%
4,COc1ccc2[nH]c(C)c(CN3CCCCC3)c(=O)c2c1,-11%
5,CSc1ccc(/C=C/C(=O)OCC(=O)N2CCN(S(=O)(=O)c3ccc(C)cc3C)CC2)cc1,6.78%
6,O=C(NC1CCCC1)c1ccc(S(=O)(=O)N2CCCC2)cc1,-0.792%
7,Cc1cc(C)c(NC(=O)CS(=O)CC(=O)Nc2ccc(N3CCOCC3)cc2)c(C)c1 (stereo not shown),10.6%
8,CC(=O)N1N=C(c2cccc([N+](=O)[O-])c2)OC1c1ccc(Cl)cc1Cl (stereo not shown),8.14%
9,O=C(NC1CC1)c1ccc2c(c1)N(Cc1ccccc1)CCS2,2.8%
10,NC(=O)NC(=O)Nc1ccccc1Cl,16.3%
11,CC(C)(C)S(=O)(=O)/C(C#N)=N/Nc1ccc(Cl)cc1,41.8%
12,Cn1c(Cc2cccs2)nnc1SCC(=O)Nc1ccccc1,11.5%
13,CC(C)(C)c1ccc(NC(=O)CCNC(=O)c2ccco2)cc1,6.91%
14,CN1CCN(C(=O)c2ccccc2N(Cc2ccccc2)S(=O)(=O)c2ccccc2)CC1,-8.4%
15,CC(C)Oc1ccc(Cc2n[nH]c(=S)n2Cc2ccccc2)cc1Cl,8.52%
16,COC(=O)C1CCN(c2nc3ccccc3nc2C(C#N)C(=O)OCC(C)C)CC1 (stereo not shown),7.76%
17,O=C(COc1ccccc1Cl)Nc1cc(Cl)ccc1Oc1ccccc1,11.3%
18,CC(OC(=O)/C=C/c1ccco1)C(=O)Nc1cccc([N+](=O)[O-])c1 (stereo not shown),6.57%
19,O=C(NCCCO)c1cc([N+](=O)[O-])cc2c1C=Cc1ccccc1O2,-33.4%
20,CCN(CC(=O)Nc1cccc(F)c1)CC(=O)Nc1ccccc1OC,-10%
21,CCOC(=O)N1CCC(NC(=O)c2cc(S(=O)(=O)N3CCCC3)cn2C)CC1,1.74%
